The target of this test is T1, SARS-CoV-2-RBD (328-533)-Fc (SARS-CoV-2).
T1 construct: also called RBD-Fc
Briefly: SPR (Biacore T200), RBD captured on anti-human Fc chip, scFv injected. (In general: SPR reads the build-up and loss of mass on a sensor chip optically.)

B1: 2020EP54-B12 scFv (scFv)
scFv: [about 100 residues omitted]VTRVGFDYWGQGTLVTVSSGGGGSGGGGSGGGGSSYELTQPPSVSVAPGKTARITCGGNNIGSKSVHWYQQKPGQAPVLVIYYDSDRPSGIPERFSGSNSGNTATLTISRVEAEDEADYYCQVWDSSSDVVFGGGTKLTVL
notes: also called 2020EP054-B12
In general, Kd refers to the equilibrium constant for the complex coming apart. Higher therefore signals weaker binding. For orientation: koff means the rate constant with which the complex falls apart. Lower therefore signals a long-lived complex. The term kon denotes the rate constant with which the complex forms. High values mean faster complex formation, low ones slower complex formation. Molecule B1 registered a Kd of 7.49 nM, a koff of 0.00504 s⁻¹ and a kon of 672000 M⁻¹ s⁻¹.

These data come from patent publication US20230220053A1 (published 2023).
